Measurements published in the supplement of paper PMC12217912.
The list shows a part of the results. The full chains were built here from the parent and the listed change. Values near 0.05 are background.

B1: TEV protease; numbered along this chain (parent)
chain: MGESLFKGPRDYNPISSSICHLTNESDGHTTSLYGIGFGPFIITNKHLFRRNNGTLVVQSLHGVFKVKDTTTLQQHLVDGRDMIIIRMPKDFPPFPQKLKFREPQREERICLVTTNFQTKSMSSMVSDTSCTFPSGDGIFWKHWIQTKDGQCGSPLVSTRDGFIVGIHSASNFTNTNNYFTSVPKNFMELLTNQEAQQWVSGWRLNADSVLWGGHKVFMVKPEEPFQPVKEATQL

Variants of: B1
Assay: raw area under fraction-flipped curve 0-4 h after induction (AUC4h, not background-subtracted), DNA-recorder readout of cleavage of the substrate (dimensionless); higher = more cleavage of the substrate by the protease variant
Settings: temperature: 34 °C; time window: 0-4 h after rhamnose induction
Description: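 In vivo DNA recorder in E. coli TOP10(DE3) ΔrhaA at 34 °C. Each TEVp single-site mutant (parent TEVp 0) is paired with a single-site variant of the 7-mer TEVs (canonical ENLYFQ|S). The substrate sits between flexible linkers in a Bxb1-sfGFP-TEVs-SsrA fusion, so cleavage stabilises Bxb1 and speeds flipping of a recombination array, read by NGS. The value is the raw area under the fraction-flipped curve over 0-4 h after rhamnose induction (AUC4h), with ≥20 reads per time point. It is not background-subtracted; inactive controls average about 0.047.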
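Note: Bxb1 expression induced with 0.2% (w/v) L-rhamnose at OD600 near 0.5, cultures sampled hourly, flipped fraction per protease–substrate barcode pair counted by paired-end Illumina sequencing.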

Variant	area with substrate ENLYCQS	area with substrate ENLYDQS	area with substrate ENLYEQS	area with substrate ENLYGQS	area with substrate ENLYHQS	area with substrate ENLYIQS	area with substrate ENLYKQS	area with substrate ENLYNQS	area with substrate ENLYPQS	area with substrate ENLYQQS	area with substrate ENLYRQS	area with substrate ENLYWQS	area with substrate ENLYLQS	area with substrate ENLYMQS	area with substrate ENLYSQS	area with substrate ENLYVQS	area with substrate ENLYTQS	area with substrate ENLYAQS	area with substrate ENLYYQS
Q75C	0.118	0.0885	0.0683	0.067	0.05	0.111	0.0554	0.0672	0.063	0.0614	0.0583	0.0672							
S4N	0.0997	0.0927	0.0756		0.069		0.0683	0.0611	0.0789	0.0665		0.0653	0.0882	0.0796	0.0646	0.183			
N45I	0.0728	0.0556	0.0581	0.0784	0.0408		0.0591	0.0526	0.0601	0.0571	0.0555			0.063	0.0592	0.0723	0.0563		
T233K		0.0597	0.0595	0.0777	0.0712	0.126	0.0751	0.0794	0.0691	0.0596	0.0621	0.0842		0.0982	0.0873	0.161	0.0982	0.0707	
Y12K	0.0831	0.0611	0.0547	0.0809	0.0644	0.111	0.0571	0.0735	0.0726	0.102	0.0607	0.0835	0.0696	0.0722	0.0558	0.0902	0.0754		
F38P	0.0242		0.0427	0.0869		0.0439	0.0441	0.0465	0.0565	0.0422	0.039	0.0396		0.04	0.0309	0.0379	0.0489		0.0384
T44D	0.0542	0.0429	0.0444	0.0427	0.0419	0.0324	0.0332	0.039	0.0391	0.0368		0.0492	0.0446	0.0499	0.0449	0.0415			0.0403
N13K	0.0916	0.0576	0.0662	0.0686	0.0767	0.128	0.0642		0.0791	0.0652	0.0666	0.0674		0.0698	0.0734		0.0646		
N13G	0.0761	0.054	0.0652	0.0572	0.0656	0.112	0.0622	0.0654	0.0703	0.0611	0.0527	0.0775		0.0636	0.0618	0.107	0.0594		0.0607
Q234K	0.122	0.0461	0.074	0.0639	0.0641	0.127	0.0211	0.072	0.0894		0.0452			0.121	0.0962	0.126	0.0597	0.0815	0.0682
T23R	0.135	0.0592	0.0629	0.064	0.0572	0.103	0.063	0.0759	0.08	0.0609	0.056	0.0781			0.0832	0.113	0.0806		0.0659
T23I	0.054	0.0548	0.0591	0.0629		0.128	0.0608	0.0719	0.0718		0.065	0.0646		0.0762	0.08				0.0639
D27Q	0.0798		0.0642	0.0577	0.0707	0.121	0.0766	0.0706	0.0744	0.0444			0.098	0.0796	0.0738		0.107		0.0611
L56V	0.0825	0.0608	0.0622	0.0533	0.0661	0.104	0.0332	0.0633	0.0835	0.0615		0.0573		0.0864	0.0721				0.0564
I84W	0.0721	0.0572	0.0596	0.0549	0.0546		0.0581	0.0551	0.0608	0.0514	0.0489	0.0453		0.0572	0.0576	0.0583	0.0501		0.0643
M83W	0.0683	0.054		0.077	0.0535	0.0533	0.0725	0.0678	0.049			0.0522		0.0654	0.0746	0.0595	0.0616		0.0515
G54R	0.0682	0.0659	0.0649	0.0592	0.0641	0.0673	0.0675	0.0622	0.062	0.0577	0.057	0.0668	0.0571	0.0561	0.0598	0.0753			0.0556
I42Y	0.0442	0.0467	0.0445	0.0536	0.0454	0.0545	0.0437	0.0542	0.0384	0.0503					0.0481	0.0352			0.0332
I42C	0.0747	0.0637	0.0603	0.0601	0.06	0.107	0.0234	0.0621	0.0618	0.064	0.0661	0.0649	0.083	0.0765	0.0648	0.113	0.0788		0.0654
R51A	0.0885	0.0323		0.0681	0.0697	0.146	0.0646	0.0748	0.0878		0.0556	0.0924			0.0756	0.184	0.0462		
H21W	0.125		0.0637	0.103	0.0622	0.184		0.0686	0.0643	0.0728	0.0521			0.0625	0.0845	0.124			0.0662
H21Y	0.0733	0.068	0.0527	0.0679	0.0657	0.11	0.0365				0.0668	0.0713		0.0808	0.0735	0.109			0.0499
V67D	0.0604	0.0524	0.0448		0.0554		0.0563	0.066	0.0362			0.0872		0.049		0.0783	0.0508		
T30W	0.0943	0.0565	0.0718	0.0804			0.0498	0.0747	0.0951	0.0606	0.0831	0.0986	0.0913		0.0611	0.146			
